Data reported in publication PMC4336329 (PLoS ONE, 2015).
Out of some 310,000 compounds screened, about 2,200 (0.71%) showed an effect of 50% or more. The effect is printed as a negative number. Some of the results follow.

Target: human ether-à-go-go-related gene (hERG) potassium channel (human, UniProt Q12809)
Assay: primary screen, population patch clamp on CHO cells stably expressing hERG

Chain of human ether-à-go-go-related gene (hERG) potassium channel (Q12809 whole entry, looked up): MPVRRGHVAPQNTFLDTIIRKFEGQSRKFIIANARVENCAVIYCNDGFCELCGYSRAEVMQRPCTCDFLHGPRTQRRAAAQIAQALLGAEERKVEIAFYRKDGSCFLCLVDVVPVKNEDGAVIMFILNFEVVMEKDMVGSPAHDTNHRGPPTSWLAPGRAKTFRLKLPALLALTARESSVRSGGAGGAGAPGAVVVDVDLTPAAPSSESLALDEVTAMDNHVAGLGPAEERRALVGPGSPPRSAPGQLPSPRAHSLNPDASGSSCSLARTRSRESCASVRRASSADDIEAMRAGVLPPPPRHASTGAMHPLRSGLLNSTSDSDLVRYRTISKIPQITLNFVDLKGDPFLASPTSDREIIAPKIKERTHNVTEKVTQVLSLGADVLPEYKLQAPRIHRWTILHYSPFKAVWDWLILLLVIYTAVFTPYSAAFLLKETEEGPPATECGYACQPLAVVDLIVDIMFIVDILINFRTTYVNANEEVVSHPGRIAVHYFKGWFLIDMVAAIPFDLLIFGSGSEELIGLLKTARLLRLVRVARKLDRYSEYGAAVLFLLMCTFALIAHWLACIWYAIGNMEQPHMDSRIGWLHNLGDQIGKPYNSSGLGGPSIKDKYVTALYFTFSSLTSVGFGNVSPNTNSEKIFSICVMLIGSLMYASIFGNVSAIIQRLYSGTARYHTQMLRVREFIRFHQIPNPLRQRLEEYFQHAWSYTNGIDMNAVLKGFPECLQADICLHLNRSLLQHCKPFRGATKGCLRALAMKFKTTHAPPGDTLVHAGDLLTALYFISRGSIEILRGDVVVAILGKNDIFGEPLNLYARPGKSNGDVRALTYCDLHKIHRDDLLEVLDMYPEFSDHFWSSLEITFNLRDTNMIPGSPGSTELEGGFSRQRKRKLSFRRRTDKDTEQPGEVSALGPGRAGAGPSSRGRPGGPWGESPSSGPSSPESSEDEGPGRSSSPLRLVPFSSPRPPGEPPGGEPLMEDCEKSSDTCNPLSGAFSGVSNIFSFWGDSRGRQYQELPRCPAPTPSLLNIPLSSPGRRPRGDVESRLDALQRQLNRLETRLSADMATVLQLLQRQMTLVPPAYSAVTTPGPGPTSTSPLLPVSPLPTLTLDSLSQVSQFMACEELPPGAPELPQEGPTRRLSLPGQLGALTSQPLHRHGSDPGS

SMILES | hERG current change (%, negative = inhibition) at 1uM
CCCCNCC#CCOc1cc(C)ccc1C(C)C.O=C(O)C(=O)O | 27.6%
C=CCc1c(C)nc(C)nc1N/N=C/c1ccc(F)cc1 | -1.18%
Cc1cc(-c2ccccc2)nc(N2CCN(c3ccccn3)CC2)n1 | 3.43%
CCOc1cc(C2Nc3ccccc3NC3=C2C(=O)CC(C)(C)C3)ccc1O (stereo not drawn) | 14.4%
N=c1oc2ccccc2cc1C(=O)Nc1ccccc1 | 12.9%
COc1ccc(/C=N/NC(=O)c2ccc(N)cc2)cc1Cn1cc([N+](=O)[O-])cn1 | -2.01%
CC(=O)c1ccc(C(=O)Nc2sc3c(c2C(N)=O)CCN(Cc2ccccc2)C3)cc1.Cl | 2.21%
COC(=O)[C@H](CCSC)NC(=O)Cn1ccc(NC(=O)OCc2ccccc2)nc1=O | 12.5%
COc1ccccc1-c1c(C)nn2c(N)c(-c3ccccc3)cnc12 | 9.37%
Cn1c(CN2CCN(C(=O)COc3ccccc3)CC2)nc2cc([N+](=O)[O-])ccc21 | -4.22%
CC(=O)c1cccc([N+](=O)[O-])c1 | 21.3%
Cc1ccc(N(C)S(=O)(=O)c2cccc(C(=O)Oc3ccc4c(C)cc(=O)oc4c3)c2)cc1 | 16.2%
Cc1ccc(NC(=O)[C@H](C)NC(=O)C2CCN(C(=O)[C@@H](N)CC(C)C)CC2)cc1.Cl | 8.63%
O=C(Nc1cccc(C(=O)O)c1)/C(=C/c1ccccc1)NC(=O)c1cccc(Br)c1 | 7.88%
O=C(CCl)N1c2ccccc2CCc2ccccc21 | 11.6%
OC1CNCc2cc3c(cc21)OCCO3 (stereo not drawn) | -3.48%
CCOc1ccc(NC(=O)Nc2nnc(CC)s2)cc1 | 13.4%
CCC(CC)C(=O)c1c[nH]c(C(=O)NCc2cccnc2)c1 | 0.619%
CC(C)=C1C2CCC1C1C(=O)N(NC(=O)c3ccco3)C(=O)C21 (stereo not drawn) | 6.47%
O=C(c1ccc2nc(N3CCCCC3)sc2c1)N1CCN(Cc2ccc3c(c2)OCO3)CC1 | 16.9%
FC(F)(F)c1cccc(N2CCN(C(=S)NCC3CCCO3)CC2)c1 (stereo not drawn) | 4.59%
Cc1cccc(N(C)C(=S)Oc2ccc3ccccc3c2)c1 | 18.5%
CC1CCN(S(=O)(=O)c2cccc(S(=O)(=O)N3CCCC3)c2)CC1 | 2.54%

SMILES | hERG current change (%, negative = inhibition) at 1uM
O=C(N1CCOCC1)N1CCCN(C(=O)N2CCOCC2)CC1 | 1.45%
O=c1[nH][nH]c(-c2ccccc2)c1C=Nc1ccccc1 | 8.22%
O=C(Nc1nc2cc3c(cc2s1)OCCO3)C1=COCCO1 | 6.45%
O=C(c1ccco1)N1CCN(C(=O)C2CCN(S(=O)(=O)c3cccc4nsnc34)CC2)CC1 | 0.0293%
Cc1cc(C(=O)C[N+]2(C)CCOCC2)c(C)n1-c1ccc(Br)cc1.[Cl-] | 11.4%
CCCCOc1ncnc2c1[nH]c1ccc(OCC)cc12 | 6.91%
CC(C)(C)S(=O)(=O)c1cnc2c(-c3ccsc3)cnn2c1N | 15.9%
Cc1ccc(N2C(=O)c3ccccc3C2Nc2ccc(S(=O)(=O)N3CCOCC3)cc2)nc1 (stereo not drawn) | 12.2%
COC(=O)/C=C1/SC(=NC(=O)c2cccc([N+](=O)[O-])c2)NC1=O | 14.9%
CCCn1cnc2cc(NCc3ccccn3)ccc21 | -1.88%
CS(=O)(=O)N(CC(=O)N1CCN(Cc2ccccc2)CC1)c1cccc([N+](=O)[O-])c1 | -73.1%
Cc1cc(C)cc(N(CC(=O)NC2CCCCC2)C(=O)c2csnn2)c1 | 4.97%
CCCCNC(=O)C1CCCN1C(=O)Nc1ccccc1 (stereo not drawn) | 0.208%
CCOC(=O)[C@@H]1[C@H]2COc3cc(OC)ccc3[C@H]2N2C(=O)N(c3cccc(Cl)c3)C(=O)[C@@]12C | 6.14%
Cc1ccc(-n2nc3c(c2NC(=O)c2c(-c4ccccc4Cl)noc2C)CSC3)cc1 | 4.26%
O=C(CSc1nc2ccccc2o1)c1ccc2c(c1)OCCO2 | 3.01%
Cn1c(SCCCC(=O)c2ccccc2)nnc1-c1ccncc1 | -24.9%
COc1ccc(-n2c(Cc3cccn3C)nnc2SCC(=O)NCc2ccco2)cc1 | 2.11%
Cc1c(C)[n+](=O)c(-c2ccco2)c(C)n1[O-] | 5.42%
Cc1ccc(/C=N/N2CCN(Cc3ccc(C)cc3)CC2)cc1 | 6.78%
CCCCN(C(=O)c1ccccc1Br)C1CCS(=O)(=O)C1 (stereo not drawn) | 3.65%
COc1ccc(NC(=S)NC(NC(=O)CCl)C(Cl)(Cl)Cl)c([N+](=O)[O-])c1 (stereo not drawn) | 17.5%
CCOc1cc(/C=N/O)cc(Cl)c1OC | 8.65%

SMILES | hERG current change (%, negative = inhibition) at 1uM
Cc1sc2ncnc(NCCCN3CCCC3=O)c2c1C | 6.96%
CC1=N/C(=C\c2ccc3c(c2)OCO3)C(=O)N1c1ccc(C(=O)O)cc1 | 9.67%
Cn1nnnc1SCC(=O)NC(=O)Cc1ccccc1 | 6.79%
CC(C)(C)SCCNS(=O)(=O)c1ccc(F)cc1 | 11.1%
Oc1ccc(C[C@@H]2CNCCN2CC2CCCCC2)cc1 | 10.6%
O=C(/C=C/c1ccco1)NCc1ccc(F)cc1 | 12.3%
Cc1ccc(S(=O)(=O)NC(CCc2ccccc2)CC(=O)C(C)(C)C)cc1 (stereo not drawn) | 9.2%
CN1CCN(c2ccc([N+](=O)[O-])cc2C(=O)Nc2ccccc2)CC1 | -59.8%
COc1ccc(CN(C)C(=O)C(Cc2ccccc2)NC(=O)c2ccccc2)c(OC)c1 (stereo not drawn) | 16.5%
O=C(CSc1nnc(-c2ccc(O)cc2)n1Cc1ccco1)N1CCc2ccccc2C1 | 3.52%
COCCn1c(=S)[nH]c2cc(C(=O)NCCCN3CCOCC3)ccc2c1=O | 9.93%
Cc1ccc(NC(=O)c2nc(S(=O)(=O)Cc3ccccc3C)ncc2Cl)cc1C | 22.5%
c1ccc(Cn2nnc3c(NCC4CCCO4)ncnc32)cc1 (stereo not drawn) | 16.2%
O=C(c1ccc(F)cc1)N1C2CCC1CC(O)(c1ccccc1F)C2 (stereo not drawn) | 5.32%
CC(C)(C)Nc1nc(Cl)nc(NCCN2CCOCC2)n1 | 6.5%
CC(=O)NC(=S)Nc1ccc(NC(=O)c2cccnc2)cc1 | 13.3%
CCCc1cc(=O)oc2c(C)c(OCC(=O)NCCCn3ccnc3)ccc12 | -70%
NS(=O)(=O)c1ccc(CCNC(=O)Cc2ccc(Cl)cc2)cc1 | 9.39%
COc1ccc(CNC(=O)CCCN2C(=O)NC3(CCCC3)C2=O)cc1 | -2.63%
C/C(=N\NC(=O)c1cccc(Br)c1)c1cccnc1 | -4.15%
Cc1cc(C)cc(NC(=O)c2cc(S(=O)(=O)NCc3ccco3)ccc2F)c1 | 12.5%
CCOc1ccc(S(=O)(=O)n2ccnc2C)cc1 | 12%
CCn1c(Cc2ccccc2)n[nH]c1=S | 4.53%

SMILES | hERG current change (%, negative = inhibition) at 1uM
O=C(NN=C1CCN(Cc2ccccc2)CC1)c1cccc(S(=O)(=O)Nc2ccccc2Cl)c1 | -2%
COc1cc(/C=C2/N=C(c3ccccc3F)OC2=O)cc(Cl)c1OS(C)(=O)=O | 12.1%
Cc1cccc2c(N)c3c(nc12)N(C)CC3.O=C(O)C(=O)O | 7.57%
CNC(=S)NCCc1ccc(OC)c(OC)c1 | 2.03%
COc1ccccc1-c1cnn2c(NCc3ccccc3)cc(C)nc12 | 15.4%
Fc1ccc(CSc2ncnc3ccccc23)cc1 | -0.628%
Cc1ccc(-c2nnc(SC(C)C#N)n2N)cc1 (stereo not drawn) | 14.7%
C=CCN1C(=O)C(CC(=O)NCC)SC1=Nc1ccc(S(N)(=O)=O)cc1 (stereo not drawn) | 14.3%
COc1ccc(C(=O)Nc2ccc(Cl)cc2C(=O)NCCO)cc1 | -36.2%
COc1ccccc1N(CC(=O)NCCc1ccccc1)C(=O)CCC(=O)Nc1nccs1 | 6.13%
COc1c(O)cccc1-c1nnn(CCC(=O)OCC(=O)c2ccccc2)n1 | 27.7%
COc1ccccc1CNS(=O)(=O)c1c(C(=O)N2CCCC2)c(C)n(C)c1C | 13.4%
Cn1ccs/c1=N\S(=O)(=O)c1ccc(F)cc1 | 10.8%
Cc1ccc(OCCCCN2CCC(C)CC2)cc1.O=C(O)C(=O)O | -0.565%
Cc1occc1-c1nnc(SCC(=O)NCCc2ccccc2)n1C(C)c1ccccc1 (stereo not drawn) | -5.95%
CCOC(=O)N1CCN(C(=O)Cc2cccs2)CC1 | 18.5%
CCOc1ncccc1C(=O)N1CCCSC1=Nc1ccc(C(C)=O)cc1 | -8.91%
CCCN1Cc2cccc(C(=O)Nc3ccc4c(c3)OCCO4)c2C1=O | 6.86%
Cc1cc(C(=O)N2CCN(c3cccc(Cl)c3)CC2)c(C)o1 | 11%
COc1cc(/C=C2\SC(=Nc3ccc(Cl)c(C(=O)O)c3)NC2=O)c(Br)c(Br)c1O | 9.09%
CC(C)c1ccc(CNc2c([N+](=O)[O-])c(=O)oc3ccccc23)cc1 | 10.7%
